In PubChem BioAssay AID463173 (ICCB-Longwood Screening Facility, Harvard Medical School, 2010):
The campaign covered roughly 52,000 compounds. About 4,300 (8.3%) were called active. Cut-off read from the data, not from the text of the source: active = survival mostly below about 52% (no sharp cut-off); inactive = mostly above about 56%. The list shows a part of the results.

Tested on: DeltatarO mutant
Assay: S. aureus survival, RN4220 and DeltatarO strains – OD600, teichoic acid synthesis inhibitors, primary screen (AID 463173)
Settings: S. aureus RN4220 wild type/DeltatarO growth, OD600, 18 h, active compounds read low, screened at 18.75 µg/mL (by protocol)

| SMILES | survival |
| --- | --- |
| Cc1ccccc1Cc1c(C)nc2c(-c3ccccc3)c(C)[nH]n2c1=O | active: -3% |
| O=C(COc1ccccc1)NCCc1csc(-c2ccc(F)cc2)n1 | inactive: 99% |
| C=CCN1C(=O)C(C(=O)Nc2ccc(C)cc2)C2CC1(C)Oc1ccccc12 (stereo unspecified) | inactive: 67% |
| CN(C(=O)Cn1c(=O)n(Cc2ccc(C(=O)NCc3ccc4c(c3)OCO4)cc2)c(=O)c2ccccc21)c1ccccc1 | inactive: 63% |
| Clc1cc(Cl)c2nsnc2c1 | inactive: 97% |
| COc1ccc(C2CC(=O)c3cc(-c4nc(-c5cccc([N+](=O)[O-])c5)cs4)c(=O)n(-c4ccccc4C)c3C2)cc1 (stereo unspecified) | inactive: 158% |
| O=C(NCc1ccccc1F)c1cccc(NC(=O)N2CCSc3ncccc32)c1 | inactive: 85% |
| Cc1ccc(-c2cc(NC(=O)COc3c(C)cc(C)cc3C)on2)cc1 | inactive: 67% |
| CCOc1ccc(OCC(=O)NCCS(=O)(=O)N2CCN(c3ccc(OC)cc3)CC2)cc1 | inactive: 75% |
| COC(=O)c1ccc(NC(=O)c2nn(C)c3c2COc2ccccc2-3)cc1 | inactive: 79% |
| Cc1ccc(NC(=O)Cn2c(=O)n(CCc3ccccc3)c(=O)c3sc4ccccc4c32)cc1C | inactive: 88% |
| COc1ccccc1CNS(=O)(=O)c1cc(-c2cc(C)no2)ccc1C | inactive: 102% |
| O=C(NCc1cccc(Cl)c1)c1oc(=O)c2ccccc2c1-c1ccccc1 | inactive: 93% |
| Cc1nn(CCCC(=O)NCCc2ccc(Cl)cc2)c(=O)c2nn(-c3ccccc3)c(C)c12 | inactive: 83% |
| COc1ccc(N(C(=O)c2cc(OC)c(OC)c(OC)c2)S(=O)(=O)c2ccc(C)cc2)cc1 | inactive: 142% |
| Cn1cc(-c2cc3n(n2)CCC(=O)N3CC(=O)NCc2ccccc2)c2ccccc21 | inactive: 101% |
| Cc1cccc(Cn2c(SCc3ccc(C(=O)NCc4cccs4)cc3)nc3ccncc32)c1 | inactive: 73% |
| Cc1ccccc1C(=O)Nc1ccc2nc(SCC(=O)N(C)c3ccccc3)sc2c1 | inactive: 59% |
| CN(C)C1(CNC(=O)COc2cccc(Cl)c2)CCCCC1 | inactive: 95% |

| SMILES | survival |
| --- | --- |
| CCC(=O)N1c2ccccc2CC1C(=O)NCCN1CCN(c2ccccc2F)CC1 (stereo unspecified) | inactive: 78% |
| Cc1ccc(NC(=O)CSc2nc(=O)n(CCN3CCOCC3)c3c2CCC3)cc1Cl | inactive: 69% |
| CC(C)(C)OC(=O)N1CCC(c2c(C(=O)NCc3ccccn3)cnn2-c2ccccc2Cl)CC1 | active: -4% |
| Cc1ccc(C)c(N2CCN(S(=O)(=O)c3ccc(C4CCCCC4)cc3)CC2)c1 | inactive: 58% |
| CCCc1noc(-c2ccc(NCc3ccccc3OC)c([N+](=O)[O-])c2)n1 | inactive: 58% |
| CCOc1ccccc1NC(=O)CSc1nc(-c2cccs2)cc(C(F)(F)F)n1 | inactive: 69% |
| COc1ccc(Cl)cc1NC(=O)c1c(NCc2cccs2)sc2c1CCC(C)C2 (stereo unspecified) | inactive: 80% |
| CCC(=O)Nc1cccc(-c2nc3ccccc3[nH]2)c1C | inactive: 94% |
| Cc1cc(-c2ccc(C)c(S(=O)(=O)NCCc3ccccc3)c2)on1 | inactive: 80% |
| COc1cccc(CNC(=O)C2CCN(c3ncnc4c3nc3n4CCCCC3)CC2)c1 | inactive: 86% |
| O=C(Nc1cc(-c2nc3ccccc3o2)ccc1Cl)c1cc([N+](=O)[O-])ccc1N1CCOCC1 | inactive: 57% |
| CCOC(=O)C1=C(C)NC(=S)NC1c1ccc(OCC(=O)N2CCCCC2)c(OC)c1 (stereo unspecified) | inactive: 74% |
| Cc1ccc(-n2c(=O)c3cccnc3n2CC(=O)Nc2ccccc2C(F)(F)F)cc1C | inactive: 72% |
| Cc1ccc(C(=O)c2cc(C)sc2NC(=O)CN2CCN(C(=O)c3ccco3)CC2)cc1 | inactive: 101% |
| Cc1ccnc(NC(c2cc(C)ccc2O)c2ccc3cccnc3c2O)c1 (stereo unspecified) | active: 4% |
| Cc1ccc(CNC(=O)C2CCN(S(=O)(=O)c3c(C)noc3/C=C/c3ccccc3F)CC2)o1 | inactive: 90% |
| Cc1ccc(C)c(NC(=O)C(NS(=O)(=O)c2ccc3c(c2)CCC(=O)N3)c2ccccc2)c1 (stereo unspecified) | inactive: 113% |
| CC[C@H](C)NC(=O)CCCc1nnc2n(CCC(C)C)c(=O)c3sccc3n12 | inactive: 86% |
| COc1ccccc1OC(C)C(=O)N1CCN(CCc2ccccn2)CC1 (stereo unspecified) | inactive: 63% |

| SMILES | survival |
| --- | --- |
| CCC(C)n1c(=N)c(C(=O)NC2CCCCC2)cc2c(=O)n3cc(C)ccc3nc21 (stereo unspecified) | inactive: 126% |
| CCOC(=O)C1CCCN(C(=O)Cn2nc(C)n3c(cc4c(OC)cccc43)c2=O)C1 (stereo unspecified) | inactive: 82% |
| O=S(=O)(NCc1ccccc1Cl)c1cccc(S(=O)(=O)N2CCOCC2)c1 | inactive: 71% |
| O=c1cc(N2CCN(c3ccc(F)cc3)CC2)[nH]c(=O)n1-c1cccc(Br)c1 | inactive: 63% |
| CC(C)c1ccc(Cc2cnc(NC(=O)c3ccc4c(c3)CC(c3ccccc3)OC4=O)s2)cc1 (stereo unspecified) | inactive: 60% |
| Cc1cccc(C(=O)NCc2cn3cccc(C)c3n2)c1 | inactive: 106% |
| CCC/C(O)=C1\C(=O)CC(C)(C)CC1=Nc1ccncc1 | inactive: 117% |
| Fc1ccc(-c2noc3ncnc(NCc4cccc(Cl)c4)c23)cc1 | inactive: 61% |
| Cc1cccc(Cc2c(C)nc3nc(SCC(=O)NC4CCCCC4)nn3c2C)c1 | active: 40% |
| CCOC(=O)c1nnc2c(-c3ccc(F)cc3)c(C)nn2c1N | inactive: 95% |
| COc1ccc(/C=C\c2onc(C)c2S(=O)(=O)N2CCC(C(=O)Nc3ccc(C)c(F)c3)CC2)cc1 | inactive: 66% |
| COc1ccccc1CNC(=O)c1cnn(-c2ccc(F)cc2F)c1C1CCN(C(=O)OC(C)(C)C)CC1 | inactive: 84% |
| Cc1ccc(N2CC(NC(=O)Cc3ccc(F)cc3)CC2=O)cc1C (stereo unspecified) | inactive: 70% |
| COc1ccc(-c2noc(CCC(=O)Nc3ccccc3Cl)n2)cc1OC | inactive: 97% |
| COCCN1CN=C(NS(=O)(=O)c2ccc(C)cc2)NC1 | inactive: 82% |
| Cc1nc(N(CCO)C2CCCCC2)c2nnn(Cc3ccccc3)c2n1 | inactive: 103% |
| CCN(CC)c1ccc(C2C(C(N)=O)=C(C)Nc3nc(SCc4ccccc4)nn32)cc1 (stereo unspecified) | inactive: 76% |
| COc1cc(C)ccc1OCCSc1nnc(-c2cccs2)o1 | active: 40% |
